Paper PMC4336329 (PLoS ONE, 2015)
Out of some 310,000 compounds screened, about 14,000 (4.5%) showed an effect of 50% or more. The effect is printed as a negative number. The list shows a part of the results.

Molecular target: human ether-à-go-go-related gene (hERG) potassium channel (human, UniProt Q12809)
Test: primary screen, population patch clamp on CHO cells stably expressing hERG
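Note: peak tail current of the secondary pulse compared with the same well before compound.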

human ether-à-go-go-related gene (hERG) potassium channel, sequence (Q12809 whole entry, looked up): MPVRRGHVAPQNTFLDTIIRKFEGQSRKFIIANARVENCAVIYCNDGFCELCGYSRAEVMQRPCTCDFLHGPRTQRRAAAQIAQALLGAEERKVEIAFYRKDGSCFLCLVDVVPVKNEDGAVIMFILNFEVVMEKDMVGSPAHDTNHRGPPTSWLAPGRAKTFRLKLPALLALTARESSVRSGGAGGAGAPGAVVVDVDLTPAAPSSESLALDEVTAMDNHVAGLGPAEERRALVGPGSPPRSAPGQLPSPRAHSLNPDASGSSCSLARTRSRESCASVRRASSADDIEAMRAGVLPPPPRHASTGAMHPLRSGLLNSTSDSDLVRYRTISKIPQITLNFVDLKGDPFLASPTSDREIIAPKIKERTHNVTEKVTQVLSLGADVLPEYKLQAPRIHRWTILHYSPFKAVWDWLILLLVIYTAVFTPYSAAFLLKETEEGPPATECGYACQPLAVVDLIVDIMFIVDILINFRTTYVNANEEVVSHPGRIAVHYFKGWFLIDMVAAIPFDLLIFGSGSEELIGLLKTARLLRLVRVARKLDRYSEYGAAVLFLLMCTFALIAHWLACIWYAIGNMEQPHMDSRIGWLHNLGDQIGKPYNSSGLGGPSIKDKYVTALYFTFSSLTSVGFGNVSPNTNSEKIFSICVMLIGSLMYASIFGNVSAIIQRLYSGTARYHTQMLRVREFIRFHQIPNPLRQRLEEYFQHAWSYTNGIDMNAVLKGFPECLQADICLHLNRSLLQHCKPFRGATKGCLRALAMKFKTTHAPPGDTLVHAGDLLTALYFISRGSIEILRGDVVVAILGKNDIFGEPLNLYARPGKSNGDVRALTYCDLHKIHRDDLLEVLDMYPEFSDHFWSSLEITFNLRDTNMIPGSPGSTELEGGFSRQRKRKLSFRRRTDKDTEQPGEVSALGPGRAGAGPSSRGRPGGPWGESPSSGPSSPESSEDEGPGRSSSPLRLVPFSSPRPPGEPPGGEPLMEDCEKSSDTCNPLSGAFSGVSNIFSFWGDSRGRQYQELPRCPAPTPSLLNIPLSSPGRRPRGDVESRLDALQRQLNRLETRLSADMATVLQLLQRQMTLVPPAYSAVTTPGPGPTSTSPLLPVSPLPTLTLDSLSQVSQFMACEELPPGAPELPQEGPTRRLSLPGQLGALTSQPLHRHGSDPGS

SMILES	hERG current change (%, negative = inhibition) at 10uM
O=C(Nc1ccc(F)c(F)c1)C1CCN(S(=O)(=O)c2cccc3nonc23)CC1	16.4%
Cc1cccc(C)c1NC(=O)CN(C)S(=O)(=O)c1ccc(-c2ccc(=O)[nH]n2)s1	-51.7%
O=C(CSc1nc2ccccc2s1)NC(=O)NCc1ccco1	10.4%
CC(=O)c1ccc(S(=O)(=O)N2CCN(C(=O)CN3C(=O)NC4(CCCC4)C3=O)CC2)cc1	12.3%
CCN1C(=O)c2ccccc2S(=O)(=O)c2ccc(C(=O)NCCOC)cc21	18.9%
COc1cccc(CCC(=O)N(C)C2CCCN(Cc3ccccc3F)C2)c1 (centres unmarked)	-0.453%
CCCCOc1ccc(C(=O)NNC(=S)NC(=O)CC)cc1	16.7%
CN(NC(=O)c1ccccc1)C1=NS(=O)(=O)c2ccccc21	23.4%
CC(C)(C)n1nnnc1C(c1cccc(C#N)c1)N1CCN2CCCC2C1 (centres unmarked)	4.48%
COc1ccc(-c2nnc3ccc(SCC(=O)N4CCOCC4)nn23)cc1	-14%
COCC(=O)N/N=C\c1ccc(OC/C=C/c2ccccc2)c(OC)c1	-11.2%
O=C(CNC(=O)C1CCCCC1)Nc1ccccc1	33.1%
COc1cccc(C(c2sc3nc(C)nn3c2O)N2CCN(C(=O)c3ccco3)CC2)c1 (centres unmarked)	-27.4%
O=C(O)C1CC(=O)N(c2ccc(OCc3ccccc3)cc2)C1 (centres unmarked)	-0.486%
COc1ccc(F)cc1S(=O)(=O)NCC1CCCO1 (centres unmarked)	7.9%
Cc1ccc(N/C=C(\[N+](=O)[O-])S(=O)(=O)c2ccccc2)cc1	13.7%
CCn1c(=O)c(C(=O)NNC(=O)Cc2ccccc2)c(O)c2ccccc21	7.94%
COc1cccc(C2C(C(C)=O)=C(C)Nc3ncnn32)c1 (centres unmarked)	-31.9%
C[C@H](NC(=O)C1CC(=O)N(c2ccc3c(c2)OCCO3)C1)C(=O)N1CCC(C(=O)O)CC1 (some centres unmarked)	15%
COCC(=O)N1CCCC(CNS(=O)(=O)c2ccc(OC)cc2)C1 (centres unmarked)	34.6%
CCC(CC)c1nnc(NC(=O)c2ccc(N3CCCCC3)c([N+](=O)[O-])c2)s1	11%
O=C(Nc1ccn(CC(=O)N2CCN(c3ccccn3)CC2)c(=O)n1)OCc1ccccc1	-10.4%
CSc1cc(C)c(OCC(=O)Nc2c(C)nn(C)c2C)c(C)c1	-19.8%

SMILES	hERG current change (%, negative = inhibition) at 10uM
COc1ccc(C)cc1-n1cnnn1	16.8%
O/N=C/c1ccccc1OCc1ccccc1Cl	3.82%
Cc1ccc(C(=O)Nc2ccc(N3CCN(C(=O)c4cccs4)CC3)cc2)c(Cl)c1	-5.13%
COC(=O)c1c(C)nsc1NC(=O)Oc1ccccc1	16.6%
O=C(NCc1ccccc1)c1cc2ccccc2oc1=O	9.92%
O=C(NC(=S)NNC(=O)c1ccccc1O)c1cccs1	10.5%
Cc1cc(C)nc(SCNC(=O)c2ccc(Cl)cc2)n1	13.3%
CCOc1cc(/C=N/NC(=O)c2cccnc2)cc(Br)c1OCC(N)=O	-22.5%
Cc1ccc(CNC(=O)CC2(CC3=NS(=O)(=O)c4ccccc4N3)CCCC2)cc1	6.74%
CCN(CC)C(=O)Oc1c(Cl)cc(Cl)c2cccnc12	-7.49%
Cn1c(-c2c(N)n(CCc3ccccc3)c3nc4ccccc4nc23)nc2ccccc21	-3.57%
O=C(/C=C\c1ccccc1)Oc1cccc2cccnc12	13.7%
COc1c(C)cc(S(=O)(=O)N2CCCC2)c(C)c1C	-10.8%
Cc1ccc(-c2nnc(-c3ccncc3)n2-c2ccc(C)cc2)cc1	-13.7%
CCc1c(C#N)c(SCCC(=O)Nc2cccc(OC)c2)nc2c1C(=O)CC(C)(C)C2	4.07%
COc1ccc(Cc2ccc(OC)c(N)c2)cc1N	-52.6%
CCOc1cccc(OCCCCn2ccnc2)c1	-9.04%
CC1(C(=O)NCc2cccnc2)CCC(=O)N1Cc1cccs1 (centres unmarked)	11.9%
O=C(COc1ncnc2ccccc12)NCCCN1CCCC1=O	4.42%
CCN1CCN(CC(O)COC(c2ccccc2)c2ccccc2)CC1 (centres unmarked)	-17.1%
CC(C)(C)c1ccc(C(=O)N2CCCC2)s1	9.61%
Cc1c(C)c2ccc(Oc3ccc([N+](=O)[O-])cc3C(F)(F)F)c(C)c2oc1=O	5.45%
Cc1cccc(NC(=O)CSCC(=O)N(C)CCOc2ccc(Cl)cc2)c1	6.99%

SMILES	hERG current change (%, negative = inhibition) at 10uM
O=C(Nc1ccc2c(c1)OCO2)Nc1cnccn1	4.55%
COC(=O)Cc1cc(=O)[nH]c(/N=C(\N)Nc2ccc(C)cc2C)n1	-0.985%
COc1ccc(-c2nc(N)n(S(=O)(=O)c3ccc(C)cc3)n2)cc1	39%
CC(=O)N1CCc2cc(Br)cc(S(=O)(=O)N3CCC(C(=O)O)CC3)c21	13.6%
O=C(NC1CCCC1)C1CC(=O)N(CCc2ccccc2)C1 (centres unmarked)	9.66%
Cc1ccc(-n2c(O)c(C=Nc3ccccc3N)c(=O)[nH]c2=O)cc1C	-4.01%
COc1ccc(/C=C/C(=O)NCC2COc3ccccc3O2)c(OC)c1 (centres unmarked)	-7.34%
Cc1onc(-c2ccccc2)c1C(=O)N/N=C(\N)COc1ccc(Cl)cc1	-38.2%
Cc1ccc(-n2ncc3c2CC(C)(C)CC3NC(=O)c2ccc[n+]([O-])c2)cc1 (centres unmarked)	-1.89%
COc1ccc(N(C)S(=O)(=O)c2cccc(C(=O)NC3CCCC3)c2)cc1	-9.64%
COc1cccc(CCNC(=O)c2cccc(NC(=O)C3=C(C)OCCS3)c2)c1	-24.3%
CCC/C(O)=C1\C(=O)CCCC1=NCCc1ccc(OCC)c(OCC)c1	-16.1%
O=C(OCN1C(=O)c2ccccc2C1=O)c1cccc(S(=O)(=O)N2CCOCC2)c1	-3.06%
CC(=O)Nc1cccc(NC(=O)CSc2ncc(-c3ccccc3)[nH]2)c1	8.41%
Cn1c(SCC(=O)NCCN2C(=O)CSC2=O)nnc1-c1ccccc1	9.34%
Cc1cc(C)cc(NC(=O)C(=O)NCC2CCCN2S(=O)(=O)c2cccs2)c1 (centres unmarked)	-18.1%
COc1ccc(Cl)cc1N(C(=O)c1ccco1)C(C(=O)NC1CCCC1)c1ccco1 (centres unmarked)	-7.07%
O=C(CSc1nnc(Cc2cccs2)n1-c1ccccc1)Nc1ccc2c(c1)OCCO2	-7.99%
O=c1cc(-c2cccc(F)c2)[nH]c2ccccc12	4.97%
Cc1ccc2nc(-c3cccc(NC(=O)c4ccco4)c3)[nH]c2c1	-30.7%
CC1C(=O)C(C)C(c2cc(Cl)ccc2O)NC1c1cc(Cl)ccc1O (centres unmarked)	9.52%
COc1ccc(S(=O)(=O)Cc2ccc(C(=O)N3CCN(c4ccc(Cl)cc4)CC3)o2)cc1	-55.5%
CCOC(=O)N(Cc1ccccc1)Cc1ccc(C(=O)N[C@@H](Cc2ccccc2)C(=O)O)cc1	13.8%

SMILES	hERG current change (%, negative = inhibition) at 10uM
O=C(CSc1nnc(-c2cccs2)n1-c1ccccc1)N1CCCC1	-16.8%
O=c1nc2ccccc2c2n1CC(CN1CCN(c3cccc(Cl)c3)CC1)N2 (centres unmarked)	-63.3%
CC(=O)/C(=C/N(C)C)Sc1ccc(C)cc1	13.3%
O=C(Nc1ccc2c(c1)OCCO2)C1CCN(S(=O)(=O)c2cccs2)CC1	-18.6%
O=C(NCc1ccccn1)[C@@H]1C[C@H]1[C@@H](NP(=O)(c1ccccc1)c1ccccc1)c1ccccc1	-1.3%
CC(OC(=O)CCC1CCCCC1)C(=O)Nc1ccc(S(N)(=O)=O)cc1 (centres unmarked)	-6.94%
CC(=O)Nc1ccc(C2CC(c3ccc(Cl)cc3)=NN2c2ccccc2)cc1 (centres unmarked)	-25.8%
C=CCn1c(SCc2csc(C)n2)nc2sc3c(c2c1=O)CCC(C)C3 (centres unmarked)	6.82%
CC1=C(C)C(=O)N(c2ccc(C(=O)O)cc2)C1=O	16.4%
CCOC(=O)C1=C(C)N=C2SC=C(C)N2C1c1ccc(OC)cc1.Cl (centres unmarked)	-19.8%
NC(=O)C1CCN(C(=O)c2cccc(S(=O)(=O)N3CCc4ccccc4C3)c2)CC1	0.623%
C=CCSc1nnc(CNS(=O)(=O)c2ccc(C)cc2)n1C	4.7%
O=C(c1ccncc1)c1ccc([N+](=O)[O-])cc1	5.29%
O=c1c(Cl)c(Cl)cnn1Cc1ccccc1Cl	-3.11%
CC1(C)NC(=O)N(CC(O)Cn2nnc3ccccc32)C1=O.Cl (centres unmarked)	3.29%
CCOc1ccccc1C(=O)Nc1nnc(C(C)C)s1	-1.92%
Cc1nc(SCc2ccc(F)cc2)n[nH]1	19.2%
COCCCNC(=S)NNC(=O)c1ccc2c(c1)OCO2	-8.49%
CC1CN(/C=C/C(=O)C(F)(F)F)CC(C)O1 (centres unmarked)	25.9%
CCOc1ccc(NC(=O)CSc2ncnc3c2sc2ccccc23)cc1	9.4%
